# Test results taken from the supplement of paper PMC11417369.
# Some of the results follow.
# Tested on: PF3D7_0420300 AP2 domain 1 (GST-tagged)
# Assay: gcPBM binding intensity (ln(normalized median fluorescence intensity)); higher = stronger DNA binding
# Procedure, shortened: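 An Agilent 4 × 180k array of primer-extended double-stranded 36-bp intergenic genomic probes, with negative controls, was incubated for 1 h with GST-tagged P. falciparum DNA-binding domains expressed in E. coli. Alexa488 anti-GST antibody detected bound protein, scanned at 488 nm. Binding intensity is the highest Masliner-normalised natural-log median intensity across replicate spots of either probe orientation.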
row,Sequence,gcPBM binding intensity (ln)
1,TATAGAAGCAAATTATGTACACAATATGGAAAATCA [XGTACX_site3345],9.46
2,GTCGAGGATATATAAAGTACATATATATATATGATA [XGTACX_site1128],9.25
3,TAATGTATCTAAAATTGTACAAATATAAATATAAAT [XGTACX_site2764],9.19
4,CACAAACAAAAACACACACACACACCGACAAAAATG [CACACA_site5362],10
5,TATAAATATTTATACACACACACATTAATACCTATA [CACACA_site7604],10.1
6,AAAAGAAGATAATACAGTACAGAATAATATAAAATA [XGTACX_site5962],9.54
7,AGAAAGAAGATATATACACACAAAAAAAGATATATA [CACACA_site6779],9.81
8,TTCTTTCTAGAATATTGTACATATATTGTTATTATA [XGTACX_site8425],9.27
9,AAATAAAATAAATAATATAAAATAATATATAAAAAA [CACACA_negctrl_site1777],9.42
10,TTTTGTTAAAAAGATGTATATTTTATAAATATTTAT [CACACA_negctrl_site101],8.92
11,AAAAAAAAATTGTGTACACATAATTATATCATATGT [CACACA_site4500],9.3
12,ATGGATAATAAGTTTACACACAAAAAAAAAGAAAAA [CACACA_site861],9.77
13,ATAAGAATCATATTTAAACACACATACATATATATA [CACACA_site9106],9.64
14,TTTTTATTGGTGAATACACACGTATATATATATTAT [CACACA_site8756],9.49
15,ATTAAATAAACCATTACACACTTTTATGTTTTGAAA [CACACA_site1143],9.3
16,ATTATATTAACAATGACATGCAATTCTTAATCCTTA [TGCATGCA_site648],9.06
17,AAAAAAAAAAAATACACACACATAAAAAAAAAAATA [CACACA_site1858],10
18,AAAAAAAAACAAAAAAGTACAAAATAAAAATACGTT [XGTACX_site4566],9.52
19,CTCTTCATATATAATTGTACACACAAAAACGACATT [XGTACX_site4287],9.66
20,TATATATATTTTGGCTGTACATCAGCGTATATTTTT [XGTACX_site3233],9.17
21,AATAAATATATACATTGTACATATATAATATATATA [XGTACX_site1458],9.14
22,TAAATTATAATATGCACACAAAATGTTATATTAAAA [CACACA_site376],8.97
23,CCTATCCATGCATATACACACATATCTATTTATATA [CACACA_site6886],9.78
24,AATATATTGTTTCCTGATATTAAATTCAATTTAATG [GTGCAC_negctrl_site22],9.11
